The supplement of paper PMC10126150
Values marked as one replicate rest on one cluster of the flow cell; about a third of the high ones do not repeat.
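Also: ATP exposure 15 min at 22 °C before imaging.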

What follows are sequences tested on ATP (assay: switch fluorescence ratio, 500 uM ATP over buffer (Cy3 cluster intensity, sum of 5 cycles each) (fold (ratio)); higher = stronger signal-on switching upon ATP binding; sequences stand for … in TCGTCGGCAGCGTCAGATGTGTATAAGAGACAGTTTTTTTTTTTTTTTTTTTTTTTTT…TC). Details: aptamer strand: ATP DNA aptamer (quencher-CACCTGGGGGAGTATTGCGGAGGAAGG + anchor), 100 nM annealed; ATP concentration: 500 uM; one replicate.
Method in brief: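 Imaging in selection buffer was followed by imaging after 15 min with 500 uM ATP at 22 °C, for Cy3-labelled switching-strand clusters annealed to 100 nM quencher-labelled ATP aptamer on a modified Illumina MiSeq flow-cell. Five of these buffer/ATP cycles ran, separated by NaOH stripping and re-annealing. The fluorescence ratio per cluster is summed target-cycle over summed buffer-cycle Cy3 intensity, averaged per switch-domain sequence; clusters outside 100-1000 RFU were removed.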
CCATCCCAGG was tested, and the switch fluorescence ratio was 4.26. With CCATCCGATG the switch fluorescence ratio was 1.57. In the case of CCATCCTGTT, the switch fluorescence ratio was 0.977. In the case of CCATCGAACG, the switch fluorescence ratio was 1.04. CCATCTAACA was tested, and the switch fluorescence ratio was 0.982. In the case of CCATGACCCC, the switch fluorescence ratio was 1.09. In the case of CCATGAGTCG, the switch fluorescence ratio was 1.07. Sequence CCATGGCCAA has a switch fluorescence ratio of 1.31. Sequence CCATGGGAGC has a switch fluorescence ratio of 0.973. CCATGTATAG gave a switch fluorescence ratio of 1.04. CCATTAGAAG gave a switch fluorescence ratio of 1.01. CCATTCTTAG was tested, and the switch fluorescence ratio was 1.03. Work on CCATTGAGAA yielded a switch fluorescence ratio of 0.984. CCATTGGGAA gave a switch fluorescence ratio of 1.02. Work on CCATTTCAGA yielded a switch fluorescence ratio of 1.02. Work on CCATTTTGT yielded a switch fluorescence ratio of 1.03. CCCAAGCCGT was tested, and the switch fluorescence ratio was 1.04. In the case of CCCAATATGG, the switch fluorescence ratio was 1.13. Work on CCCACACGGC yielded a switch fluorescence ratio of 1.19. Work on CCCACAGACG yielded a switch fluorescence ratio of 1.27. Work on CCCACAGTT yielded a switch fluorescence ratio of 2.46. CCCACCCGG gave a switch fluorescence ratio of 1.17. CCCACCCGTG gave a switch fluorescence ratio of 1.24. In the case of CCCAGCTGGT, the switch fluorescence ratio was 1.02. CCCAGGCGG showed a switch fluorescence ratio of 1.7. CCCATAACT showed a switch fluorescence ratio of 1.05. CCCATCACGC gave a switch fluorescence ratio of 1.13. In the case of CCCATCCCCA, the switch fluorescence ratio was 1.12. For CCCATCCCCC, the switch fluorescence ratio was 1.3. With CCCATCGGCC the switch fluorescence ratio was 1.01. For CCCATGCGCC, the switch fluorescence ratio was 1.31. CCCATTACAG was tested, and the switch fluorescence ratio was 0.999. Sequence CCCATTCGC has a switch fluorescence ratio of 1.11. For CCCATTGTCT, the switch fluorescence ratio was 1.07. CCCCAAAGGG showed a switch fluorescence ratio of 1.06. For CCCCAGCATA, the switch fluorescence ratio was 6.13. With CCCCATCGCC the switch fluorescence ratio was 1.06. In the case of CCCCATTCTC, the switch fluorescence ratio was 1.09. Work on CCCCCCCCAG yielded a switch fluorescence ratio of 4.75. Sequence CCCCCCGGTG has a switch fluorescence ratio of 2.34. In the case of CCCCCTGTGG, the switch fluorescence ratio was 2.57. Work on CCCCGGATTC yielded a switch fluorescence ratio of 2.02. CCCCGTTGTA gave a switch fluorescence ratio of 1.5. For CCCCTGCATT, the switch fluorescence ratio was 3.14. CCCCTTCTGT was tested, and the switch fluorescence ratio was 0.965. In the case of CCCCTTGGC, the switch fluorescence ratio was 1.08. CCCGAAGTCC gave a switch fluorescence ratio of 1.21. CCCGAATGCG gave a switch fluorescence ratio of 1.05. With CCCGAGGATG the switch fluorescence ratio was 1.11. For CCCGAGGGCC, the switch fluorescence ratio was 0.985. In the case of CCCGATGGTG, the switch fluorescence ratio was 1.79. With CCCGCCTAGC the switch fluorescence ratio was 2.06. CCCGCTCTTC showed a switch fluorescence ratio of 1.34. For CCCGGACATT, the switch fluorescence ratio was 0.987. CCCGGATCGT showed a switch fluorescence ratio of 1. In the case of CCCGGCCAAA, the switch fluorescence ratio was 1.15. For CCCGGCTATT, the switch fluorescence ratio was 1.1. With CCCGTACACC the switch fluorescence ratio was 1.22. In the case of CCCGTCAAAA, the switch fluorescence ratio was 1.32. Work on CCCGTCTGGC yielded a switch fluorescence ratio of 1.09. CCCGTGAGAG was tested, and the switch fluorescence ratio was 1.3. Sequence CCCGTGCCTC has a switch fluorescence ratio of 1.05. Work on CCCGTGGATG yielded a switch fluorescence ratio of 1.02. Sequence CCCGTTACTT has a switch fluorescence ratio of 1.16. CCCGTTTTGA gave a switch fluorescence ratio of 1.05. In the case of CCCTAATCAT, the switch fluorescence ratio was 0.959. For CCCTAATCGT, the switch fluorescence ratio was 0.957. In the case of CCCTACTGGG, the switch fluorescence ratio was 0.955. For CCCTATCAAA, the switch fluorescence ratio was 1.04. CCCTATTCA showed a switch fluorescence ratio of 0.999. With CCCTCCTGTG the switch fluorescence ratio was 1.99. CCCTCTGTCC showed a switch fluorescence ratio of 1.12. For CCCTGAGCGC, the switch fluorescence ratio was 1.03. For CCCTGCCCTG, the switch fluorescence ratio was 1.07. CCCTGCTCTG gave a switch fluorescence ratio of 1.01. In the case of CCCTGGAGCT, the switch fluorescence ratio was 1.19.
